# Where “and” joins values, the source holds several entries; their conditions need not be identical. Identical values can stand only once. The whole screen tested about 420,000 compounds, of which about 64,000 (15%) were called active. Inconclusive results, whose numbers are uncertain, are shown with a selection of clear calls. The call rests on the fitted dose curve; in most records, active means well fitted inhibition curve with a large enough effect; inconclusive means small, poorly fitted or top-dose-only effect; inactive means flat fitted curve, though single readings scatter. Potencies beside an inconclusive call are fits to weak or partial responses and may not hold up. Peptide text beside a SMILES is read from it. * marks the point of attachment. Cbz = O=C(OCc1ccccc1)*
# Assay: qHTS for Inhibitors of human tyrosyl-DNA phosphodiesterase 1 (TDP1): qHTS in cells in absence of CPT; further: nearly all actives have a fitted effect of over 55% in size
# Settings: DT40 Tdp1-/- hTDP1 cells, no CPT, ATP luminescence, 48 h; series mostly up to 46.2 µM
# Procedure, shortened: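 Seeded 400 DT40-hTDP1 cells/well (vehicle DMSO, no 20 nM CPT); pinned compounds; ≥48 hr at 37 °C; CellTiter-Glo luminescence as viability measure.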
# Potency means the concentration at half of the fitted maximal effect; tags describe the fitted curve by direction and shape.
row,SMILES,Potency
1,CCCOc1ccc(C2=NC(c3ccncc3)=Nc3ccc(C)cc3N2)cc1,"inconclusive: 20.6 µM [inhibitor, single point]"
2,COc1ccc(-n2c(C)cc(/C=C(\C#N)C(=O)NCc3ccco3)c2C)cc1,inactive
3,CCOC(=O)C1CCN(c2ncnc3c2cnn3-c2ccc(OC)cc2)CC1,inactive
4,O=C(O)c1cc([N+](=O)[O-])ccc1-c1ccc([N+](=O)[O-])cc1C(=O)O,inactive
5,O=C(CCN1CCCCC1=O)NC1CCCN(Cc2ccc(Cl)cc2)C1 (stereo not drawn),inactive
6,O=C(Cn1cc(C(F)(F)F)cc(Cl)c1=O)Nc1cccc(S(=O)(=O)N2CCCCC2)c1,inactive
7,COc1cc(CNCCSc2nnnn2C)ccc1OCc1ccccc1C,"inconclusive: 29.1 µM [inhibitor, single point]"
8,Cc1ccccc1CNC(=O)c1ccc(NC(=O)N2CCCCc3ccccc32)cc1,"inconclusive: 3.26 µM [inhibitor, full curve]"
9,Cc1ccc(NC(=O)N(CCCN2CCOCC2)Cc2cccs2)cc1C,"inconclusive: 20.6 µM [inhibitor, partial curve]"
10,COc1ccc(C(=O)N/N=C(/C)c2cccc(NC(=O)c3ccncc3)c2)cc1OC,inactive
11,Cc1nc2c(C(=O)N3CCOCC3)cnn2c(C)c1Cc1ccc(Cl)cc1,"inconclusive: 20.6 µM [inhibitor, single point]"
12,COc1cccc(-c2cc(NCc3cccc(C)c3)ncn2)c1,"inconclusive: 29.1 µM [inhibitor, single point]"
13,COc1ccc(OC)c(S(=O)(=O)N2CCc3ccccc32)c1,inactive
14,CCCOC1CCCN(C(=O)c2ccc(OC3CCN(C(=O)CCOC)CC3)cc2)C1 (stereo not drawn),inactive
15,CSc1ncc(Cl)c(C(=O)Nc2c(C(=O)Nc3cccc(C)c3)oc3ccccc23)n1,inactive
16,CCOc1ccc(S(=O)(=O)N2CCC(C(=O)Nc3ccc(C)c(S(=O)(=O)N4CCOCC4)c3)CC2)cc1,"inconclusive: 29.1 µM [inhibitor, single point]"
17,CCN(C(=O)Cc1c(C(=O)O)n(CC)c2ccccc12)c1ccccc1C,inactive
18,CN(C)CCN(C(=O)C1=COCCO1)c1nc2ccc(Cl)cc2s1,inactive
19,CCOc1ccc(/C=C/C(O)=C2/C(=O)N(C)C3(C)CC2c2ccccc2O3)cc1OC (stereo not drawn),active: 8.2 µM
20,O=C(COC(=O)/C=C/c1cccc(Br)c1)NCc1ccco1,inactive
21,Cc1ccc(S(=O)(=O)c2c(Nc3ccc(C)c(C)c3)sc(C(=O)c3ccc4c(c3)OCO4)c2N)cc1,"inconclusive: 10.3 µM [inhibitor, partial curve]"
22,NS(=O)(=O)c1ccc(NC(=O)CN2CCc3ccccc3C2)cc1,inactive
23,CN1C(=O)[C@H]2[C@@H](c3ccc(C(F)(F)F)cc3)N[C@]3(CCCN(Cc4ccc(F)cc4)C3=O)[C@H]2C1=O,active: 7.31 µM
24,c1nc(NC2CCCC2)c2[nH]cnc2n1,"inconclusive: 35.5 µM [inhibitor, single point] and inconclusive: 23.1 µM [inhibitor, single point]"
25,Cc1ccc(C)c(NC(=O)CN(C)C(=O)c2nn(C)c(=O)c3ccccc23)c1,"inconclusive: 13 µM [inhibitor, single point]"

row,SMILES,Potency
1,CCCc1nc2c(C)cc(Br)cn2c1Cc1ccc(C)cc1,"inconclusive: 29.1 µM [inhibitor, single point]"
2,COc1cc(C(=O)Nc2ccc(Br)cc2C(=O)c2cc(OC)c(OC)c(OC)c2)cc(OC)c1OC,active: 3.66 µM
3,COc1cccc(NC(=O)CCNS(=O)(=O)c2cccc3nonc23)c1,inactive
4,Cc1ccc2c(c1)=N/C(=N\c1[nH]c(O)c3ccccc13)N=2,active: 3.66 µM
5,CCN(c1ccc(NC(=O)CN2C(=O)NC3(CCOc4ccccc43)C2=O)cc1)C(C)C (stereo not drawn),"inconclusive: 29.1 µM [inhibitor, single point]"
6,Cc1nc(NCCN)c(C#N)c2c1COC(C)(C)C2,inactive
7,COc1ccc2c(c1)-c1ccccc1S(=O)(=O)N2C,"inconclusive: 29.1 µM [inhibitor, partial curve, poor fit]"
8,Cc1ccc(NC(=O)CSc2nc3c(cc2C#N)C(=O)CCC3)cc1S(=O)(=O)N(C)C,"inconclusive: 18.4 µM [inhibitor, single point]"
9,CCc1cccc(NC(=O)CCc2c(C)nn(-c3ccc(N4CCCCC4)nn3)c2C)c1,"inconclusive: 29.1 µM [inhibitor, single point]"
10,COc1cc(/C(C)=N/NC(=O)C(O)(c2ccccc2)c2ccccc2)ccc1O,inactive
11,CCC(=O)Nc1ccc(-c2nc3ccccc3c(=O)o2)cc1,inactive
12,O=C(Nc1c(C(=O)c2ccccc2)oc2ccccc12)c1ccc(F)cc1,"inconclusive: 6.51 µM [inhibitor, single point]"
13,O=[N+]([O-])c1cccc(/C=N/Nc2nc(NCc3ccccc3)nc(N3CCOCC3)n2)c1,"inconclusive: 25.9 µM [inhibitor, single point]"
14,CS(=O)(=O)n1c2ccccc2c(=O)n1-c1ccccc1CCl,"inconclusive: 25.9 µM [inhibitor, single point]"
15,CCCCNC(=O)N1CCN(Cc2cccc(F)c2)CC1,inactive
16,C=CCc1ccccc1OCC(O)CNC(=O)c1ccccc1C(=O)O (stereo not drawn),inactive
17,COc1ccc(-c2nnc(CSc3nnc(-c4ccncc4)n3C3CCCCC3)o2)cc1OC,"inconclusive: 20.6 µM [inhibitor, partial curve]"
18,CCOC(=O)CSc1nc2c(c(=O)[nH]1)C(C)(CC)Cc1ccccc1-2 (stereo not drawn),active: 16.4 µM
19,O=C1CN(C(=O)c2ccc(S(=O)(=O)N3CCCC3)cc2)C(c2ccccc2)c2cc(Cl)ccc2N1 (stereo not drawn),active: 20.6 µM
20,COc1ccc(Cl)cc1NC(=O)C(C)Sc1nnc(C2CC2)n1C1CC1 (stereo not drawn),inactive
21,CCOc1ccc(C(=O)Nc2ccc3oc(-c4cccc5ccccc45)nc3c2)cc1,"inconclusive: 4.61 µM [inhibitor, partial curve]"
22,COc1ccc(S(=O)(=O)N2CCOCC2)cc1C(=O)Nc1ccc2c(c1)OCO2,inactive
23,Cc1ccc2cccc(O)c2[n+]1[O-],inactive
24,CCn1c(SCC(=O)N2CC(C)OC(C)C2)nc2c([nH]c3ccccc32)c1=O (stereo not drawn),"inconclusive: 29.1 µM [inhibitor, single point]"
25,CC(C)Cc1nnc(NC(=O)CCC(=O)N2CC(C)CC(C)C2)s1 (stereo not drawn),inactive

row,SMILES,Potency
1,CC(C)c1nc2ccc(C(=O)NCCCN3CCN(c4ccccc4)CC3)cc2o1,"inconclusive: 18.4 µM [inhibitor, single point]"
2,CCCCCCCCN1C(=O)[C@H](CC(=O)NCCCOCCCC)C[C@@]2(C(=O)OC)CCCCC=C12,active: 18.4 µM
3,CCOC(=O)C1CCN(Cc2cnc(Oc3ccc(C(C)(C)C)cc3)s2)CC1,active: 20.6 µM
4,COc1ccc(C(=O)C2CCCN(S(=O)(=O)N(C)C)C2)c(C)c1 (stereo not drawn),inactive
5,CCc1ccc(NC(=O)CCS(=O)(=O)c2ccc(Br)cc2)cc1,"inconclusive: 23.1 µM [inhibitor, single point]"
6,O=C(COc1ccc(Cl)cc1Cl)Nc1ccccc1NS(=O)(=O)c1cccs1,inactive
7,C=CS(=O)(=O)N(Cc1ccccc1Br)[C@H](CO)Cc1ccccc1,active: 7.08 µM
8,COc1ccc(CN(C(=O)Cn2nnc(-c3ccc(C)o3)n2)C(C(=O)NCC2CCCO2)c2ccco2)cc1 (stereo not drawn),"inconclusive: 16.4 µM [inhibitor, single point]"
9,CCN(CC)CCC(c1ccc(N(C)C)cc1)c1c(OC)cc(OC)c2ccc(=O)oc12 (stereo not drawn),active: 13 µM
10,COc1cccc(C2c3cc4c(cc3OC(N3CCCC3)C2C)OCO4)c1O (stereo not drawn),"inconclusive: 18.4 µM [inhibitor, single point]"
11,CC(C)(C)CC(C)(C)NC(=O)c1ccc2snnc2c1,"inconclusive: 14.6 µM [inhibitor, partial curve, poor fit]"
12,COc1cccc(C(=O)Nc2ccc3nc4n(c(=O)c3c2)CCCCC4)c1,active: 20.6 µM
13,Cc1cccc2c(=O)c(-c3ccc(Cl)cc3)c(NC(=O)c3ccco3)oc12,inactive
14,CC(C)(C)NC(=O)NCC1CCCC1NC(=O)NC(C)(C)C (stereo not drawn),inactive
15,CCCCn1c(CNC(=O)C23CC4CC(CC(C4)C2)C3)nnc1SC(C)CC (stereo not drawn),active: 20.6 µM
16,Cc1ccc2ccc(S(=O)(=O)NCc3ccccn3)cc2c1,"inconclusive: 16.4 µM [inhibitor, single point]"
17,CC(C)=CCc1c(O)cc2oc(C)cc(=O)c2c1O,"inconclusive: 16.4 µM [inhibitor, partial curve]"
18,O=C(CCn1nnc2ccccc21)Nc1nnc(COc2ccccc2F)s1,"inconclusive: 25.9 µM [inhibitor, single point]"
19,CC(C)(O)C(=O)N/N=C\c1ccc(OC/C=C/c2ccccc2)cc1,"inconclusive: 23.1 µM [inhibitor, single point]"
20,CCC(C)C(NC(=O)C(Cc1ccc(O)cc1)NC(=O)OCc1ccccc1)C(=O)OC (stereo not drawn) (Cbz-Tyr-Ile-OMe; configuration not given here),"inconclusive: 25.9 µM [inhibitor, single point]"
21,CC1CC(C)CN(C(=O)COC(=O)c2cccc(S(=O)(=O)N(C)c3ccccc3)c2)C1 (stereo not drawn),"inconclusive: 23.1 µM [inhibitor, single point]"
22,CCCc1c(C(=O)Nc2ccc(N3CCOCC3)cc2)cnn1-c1ccccc1,"inconclusive: 20.6 µM [inhibitor, single point]"
23,CCCCN1C(=O)C(CC(=O)NCc2cccc3ccccc23)CC(C(=O)N(C(C)C)C(C)C)=C1C (stereo not drawn),"inconclusive: 20.6 µM [inhibitor, single point]"
